# Test results as given in PubChem BioAssay AID504832 (National Center for Advancing Translational Sciences (NCATS), 2011).
# Among all 310,000 compounds or so, about 18,000 (5.8%) were called active. The inconclusive results got no clear call from the source; some entries with a clear call stand among them for comparison. The call rests on the fitted dose curve; in most records, active means well fitted inhibition curve with a large enough effect; inconclusive means small, poorly fitted or top-dose-only effect, or another doubt; inactive means no such curve, though single readings can be large or run the other way. Potencies of inconclusive entries are left out as doubtful fits.
# Test: Primary qHTS for delayed death inhibitors of the malarial parasite plastid, 48 hour incubation
# Details: P. falciparum luciferase growth in erythrocytes; series mostly up to 28.7 µM; activity change, negative = inhibition: at the top concentration
# Outline: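 A one-generation exposure of luciferase-tagged malaria parasites in RPMI 1640/Albumax erythrocyte culture, 37 C and 5% CO2. Inhibition is inferred from decreased luminescence after adding detection reagent.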
# On the % scale 0 is the no-effect control and ±100 the full control effect; potency means the concentration at half of the fitted maximal effect; tags describe the fitted curve by direction and shape.
Compound,Potency,"activity change, negative = inhibition"
CCCOc1ccc(/C=C/C(=O)N2CCN(c3ccccn3)CC2)cc1,"inconclusive [inhibitor, full curve, poor fit]",–
CC(CCc1ccco1)NC(=O)CCc1nnc2ccc(NCc3ccc(Cl)cc3)nn12 (stereo unspecified),"inconclusive [inhibitor, single point]",–
Cc1oc2cc3oc(=O)c(CCC(=O)NCCCN4CCCC4=O)c(C)c3cc2c1C,–,inactive: -9.21%
O=C(NCC(c1ccco1)N1CCc2ccccc21)c1ccc([N+](=O)[O-])cc1 (stereo unspecified),"inconclusive [inhibitor, single point]",–
COC(=O)C(C)n1cnc2c(nnn2-c2ccc(C)cc2)c1=O (stereo unspecified),–,inactive: 4.08%
O=C(NCc1ccco1)c1nc(-c2ccccc2)n(-c2ccccc2)n1,–,inactive: 5.98%
O=C(NCC1OCCc2ccccc21)c1ccc(NC(=O)c2ccccc2Cl)cc1 (stereo unspecified),"inconclusive [inhibitor, partial curve]",–
CN(Cc1ccccc1)C(=O)c1cccc(C(=O)N(C)Cc2ccccc2)c1,–,inactive: 4.36%
CCOCCCn1c(=N)c(C(=O)NCc2ccc3c(c2)OCO3)cc2c(=O)n3cccc(C)c3nc21,active: 1.04 µM,–
Cc1cccc(OCCn2c(=S)[nH]c3ccccc32)c1,"inconclusive [inhibitor, single point]",–
CCCn1cnnc1CNC(=O)C1CCC(=O)N(CCc2ccc(OC)cc2)C1 (stereo unspecified),–,inactive: 19.6%
COc1ccc(S(=O)(=O)N(CC(=O)Nc2ccc(S(=O)(=O)N3CCOCC3)cc2)c2ccccc2)cc1,"inconclusive [inhibitor, single point]",–
Cn1nc(C(C)(C)C)cc1NC(=O)Nc1cc(Cl)cc(Cl)c1,"inconclusive [inhibitor, partial curve]",–
COc1ccccc1C(CNC(=O)C1CCN(C(=O)Nc2ccccc2)CC1)N1CCCC1 (stereo unspecified),"inconclusive [inhibitor, single point]",–
Cc1ccccc1Nc1nc(N2CCOCC2)nc(N2CCOCC2)n1,"inconclusive [inhibitor, partial curve, poor fit]",–
Cc1cccc(OCC(=O)NCC(=O)N/N=C/c2cc(Br)ccc2OCc2ccccc2)c1,"inconclusive [inhibitor, single point]",–
CN(C(=S)NC(=O)c1ccc(F)cc1)C1CCCCC1,"inconclusive [inhibitor, single point]",–
COc1ccc([C@]23Cc4cc(C#N)ccc4C(O2)c2c(cc(-c4ccccc4)oc2=O)O3)cc1,"inconclusive [inhibitor, single point]",–
COc1cc(C2c3c([nH]c(=O)[nH]c3=O)Nc3ccc4ccccc4c32)cc(OC)c1OC (stereo unspecified),"inconclusive [inhibitor, single point]",–
CC(C)n1cnc2c(N(C)c3cccc(Cl)c3)nc(N(CCO)CCO)nc21,active: 13.1 µM,–
CC(C)CCn1c(=O)c2ccccc2n2c(CCl)nnc12,"inconclusive [inhibitor, single point]",–
CCOc1ccc(NC(=O)COC(=O)c2ccc3c(c2)OCCO3)cc1,"inconclusive [inhibitor, partial curve]",–
CCOC(=O)C1(CC2CCCCO2)CCN(S(=O)(=O)c2ccc(OC)cc2)CC1 (stereo unspecified),"inconclusive [inhibitor, single point]",–

Compound,Potency,"activity change, negative = inhibition"
COC(=O)Cc1coc2cc(OC)ccc12,–,inactive: 40.8%
COc1cc(/C=N/N2CCOCC2)ccc1OCc1ccccc1,–,inactive: 0%
Cc1nc2c([N+](=O)[O-])c(C)c(C)cc2[nH]1,"inconclusive [inhibitor, single point]",–
COc1ccc(C(=O)CSc2nnc(C(CO)NC(=O)c3ccc(OC)cc3)n2C)cc1 (stereo unspecified),–,inactive: -4.92%
O=C(c1cccc(-c2nnc(-c3ccccc3)o2)c1)N1CCCCCC1,–,inactive: -8.76%
COc1ccc(CN(C)C(=S)Nc2ccc(Cl)cc2)cc1,–,inactive: -15.6%
O=C(COc1ccc2c3c(c(=O)oc2c1)CCCC3)N1CCN(c2ccc(F)cc2)CC1,–,inactive: 3.63%
Cc1cc(C)c(S(=O)(=O)Cc2ccccc2)c(Cl)n1,–,inactive: 12.2%
COC(=O)CCC(=O)OC1(C)C(=O)C2=CN(C3CCCC3)C(c3ccc(OC)cc3)=CC2=C(Br)C1=O (stereo unspecified),"inconclusive [inhibitor, single point]",–
C/C(=N\Nc1cc(C)nc(-c2ccccc2)n1)c1cccc([N+](=O)[O-])c1,active: 11.7 µM,–
COc1ccc(NC(=O)CSc2nnc(C3CCCCC3)n2-c2ccccc2)cc1,"inconclusive [inhibitor, partial curve, poor fit]",–
CCOC(=O)CN1C(=O)C(C)(C)Oc2ccc(C(=O)Nc3ccccc3OC)cc21,"inconclusive [inhibitor, single point]",–
CCOC(=O)C1CCCN(C(=O)c2ccc(S(=O)(=O)Nc3ccccc3OC)cc2)C1 (stereo unspecified),active: 11.7 µM,–
Cc1cnc(C(=O)OCC(=O)NCc2cccc(Cl)c2)cn1,–,inactive: -3.3%
COc1ccc(CN2CCN(C)CC2)cc1OCc1ccccc1,–,inactive: -17.9%
CCCOc1ccc2c3c(c(=O)oc2c1OCCC)CCC3,"inconclusive [inhibitor, single point]",–
O=C1c2ccccc2C(=O)N1CC1c2ccccc2CCN1S(=O)(=O)c1ccccc1 (stereo unspecified),"inconclusive [inhibitor, partial curve, poor fit]",–
COc1cc2c(cc1OC)CN(C1CCCN(Cc3cc(Cl)ccc3O)C1)CC2 (stereo unspecified),"inconclusive [inhibitor, partial curve, poor fit]",–
CCOC(=O)c1c(N/N=C/c2ccncc2)n[nH]c1C,–,inactive: 72.3%
COc1ccc(/C=C2\Sc3ccc(C(=O)N4CCN(Cc5ccccc5)CC4)cc3N(C)C2=O)cc1OC,"inconclusive [inhibitor, partial curve]",–
CCC1SC2=NCCN2C1(O)c1ccc(Cl)cc1 (stereo unspecified),"inconclusive [inhibitor, partial curve]",–
CC1CCc2c(C(=O)Nc3cccc(-c4nn[nH]n4)c3)csc2C1 (stereo unspecified),–,inactive: 50.1%
O=C(Nc1ccc(S(=O)(=O)Nc2nccs2)cc1)c1ccc(F)c(S(=O)(=O)N2CCOCC2)c1,"inconclusive [inhibitor, partial curve, poor fit]",–
